Reference: patent US12583836B2 (Anaxis Pharma Pty Ltd, priority 2020, dated 2026)

Columns and labels:
MLKL (full length) = target: T1, MLKL (full length) (Homo sapiens, UniProt Q8NB16); assay: KINOMEscan binding assay, MLKL; conditions: equilibrium dissociation constant, class symbols
T1 construct: purchased DiscoverX (KINOMEscan service); host or cells: E. coli BL21-derived (T7 phage) or HEK293
T1 sequence (Q8NB16 1-471): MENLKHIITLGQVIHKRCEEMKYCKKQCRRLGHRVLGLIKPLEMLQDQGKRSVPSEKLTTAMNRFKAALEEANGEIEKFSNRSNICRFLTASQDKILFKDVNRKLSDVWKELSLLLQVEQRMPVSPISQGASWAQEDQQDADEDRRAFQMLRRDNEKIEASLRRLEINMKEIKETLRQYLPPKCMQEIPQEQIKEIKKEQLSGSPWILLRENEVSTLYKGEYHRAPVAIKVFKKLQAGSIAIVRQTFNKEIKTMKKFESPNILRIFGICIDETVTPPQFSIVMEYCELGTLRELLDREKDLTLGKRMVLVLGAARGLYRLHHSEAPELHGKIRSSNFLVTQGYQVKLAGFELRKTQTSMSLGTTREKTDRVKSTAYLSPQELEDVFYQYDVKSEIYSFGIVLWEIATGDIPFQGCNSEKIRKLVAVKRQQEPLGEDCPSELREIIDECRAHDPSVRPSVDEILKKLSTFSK
Description: The Hill Slope was set to −1.

RIP1 = target: T2, RIP1 (Homo sapiens, UniProt Q13546); assay: KINOMEscan binding assay, RIP1; conditions: equilibrium dissociation constant, class symbols
T2 construct: purchased DiscoverX (KINOMEscan service); host or cells: E. coli BL21-derived (T7 phage) or HEK293
T2 sequence (Q13546 1-671): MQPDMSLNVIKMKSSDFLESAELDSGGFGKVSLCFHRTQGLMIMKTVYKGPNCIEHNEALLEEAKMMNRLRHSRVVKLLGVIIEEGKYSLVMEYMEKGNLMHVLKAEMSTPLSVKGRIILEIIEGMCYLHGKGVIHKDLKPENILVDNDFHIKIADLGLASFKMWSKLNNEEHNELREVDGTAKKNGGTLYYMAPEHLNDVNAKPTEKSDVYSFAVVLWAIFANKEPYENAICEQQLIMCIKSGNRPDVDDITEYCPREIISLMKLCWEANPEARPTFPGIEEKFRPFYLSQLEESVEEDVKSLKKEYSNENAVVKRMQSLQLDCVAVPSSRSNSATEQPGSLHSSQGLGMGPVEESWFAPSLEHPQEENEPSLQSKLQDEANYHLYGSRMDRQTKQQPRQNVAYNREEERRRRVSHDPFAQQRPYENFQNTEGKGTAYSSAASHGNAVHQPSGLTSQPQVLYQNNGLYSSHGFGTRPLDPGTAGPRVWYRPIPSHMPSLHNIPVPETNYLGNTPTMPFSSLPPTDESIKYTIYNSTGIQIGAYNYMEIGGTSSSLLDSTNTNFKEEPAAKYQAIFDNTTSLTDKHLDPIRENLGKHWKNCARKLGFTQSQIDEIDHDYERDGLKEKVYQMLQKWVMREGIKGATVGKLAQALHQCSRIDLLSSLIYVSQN

- Kd (MLKL (full length)): < 0.01 µM
- Kd (RIP1): > 30 µM
SMILES: NC(=O)c1c(-c2ccc(NS(=O)(=O)CC(F)(F)F)cc2)n[nH]c1Nc1ccc(C(F)(F)F)cn1 [Compound 153, 3-(4-((2,2,2-trifluoroethyl)sulfonamido)phenyl)-5-((5-(trifluoromethyl)pyridine-2-yl)amino)-1H-pyrazole-4-carboxamide]
